# Laboratory results reported in the supplement of paper PMC8728848.
# The list shows a part of the results.
# B1: Di AAL2 (Agrocybe aegerita) (protein)
# chain: MTSNVITQDLPIPVASRGFADIVGFGLDGVVIGRNAVNLQPFLAVKNFAQNAGGWLTTKHVRLIADTTGTGKGDIVGFGNAGVYVSVNNGKNTFADPPKMVIANFGYDAGGWRVEKHLRYLADIRKIGRADIIGFGEKGVLVSRNNGGLNFGPATLVLKDFGYDAGGWRLDRHLRFLADVTGNGHLDIVGFGDKHVFISRNNGDGTFAPAKSVIDNFCIDAGGWKIGDHPRFVADLTGDGTADIIGCGKAGCWVALNNGGGVFGQVKLVINDFGTDKGWQAAKHPRFIADLTGNGRGDVVGFGNAGVYVALNNGDGTFQSAKLVLKDFGVQQGWTVSKHRRFVVDLTGDGCADIIGFGEKETLVSYNDGKGNFGPVKALTNDFSFSGGKWAPETTVCWMANLDSSRHPAPAPMTSNVITQDLPIPVASRGFADIVGFGLDGVVIGRNAVNLQPFLAVKNFAQNAGGWLTTKHVRLIADTTGTGKGDIVGFGNAGVYVSVNNGKNTFADPPKMVIANFGYDAGGWRVEKHLRYLADIRKIGRADIIGFGEKGVLVSRNNGGLNFGPATLVLKDFGYDAGGWRLDRHLRFLADVTGNGHLDIVGFGDKHVFISRNNGDGTFAPAKSVIDNFCIDAGGWKIGDHPRFVADLTGDGTADIIGCGKAGCWVALNNGGGVFGQVKLVINDFGTDKGWQAAKHPRFIADLTGNGRGDVVGFGNAGVYVALNNGDGTFQSAKLVLKDFGVQQGWTVSKHRRFVVDLTGDGCADIIGFGEKETLVSYNDGKGNFGPVKALTNDFSFSGGKWAPETTVCWMANLDSSRH
# Columns and labels:
# Test in all cases: glycan array binding signal (z-score within array); higher = stronger binding
# Details in all cases: glycan notation: IUPAC condensed, linker removed
# [1] = target: Neu5Ac(a2-6)GlcNAc(b1-4)GlcNAc(b1-4)GlcNAc
# Outline: (§1)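 From the Consortium for Functional Glycomics database, 3228 arrays were curated, keeping only those whose protein sequence was available. Binding is given as a within-array Z-score averaged across arrays sharing a protein sequence and across linkers. Negative Z-scores can be read as non-binding.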
# Neu5Ac(a2-8)Neu5Ac = target: Neu5Ac(a2-8)Neu5Ac
# Outline: as §1
# [2] = target: Neu5Ac(a2-8)Neu5Ac(a2-3)Gal(b1-3)GalNAc(b1-4)[Neu5Ac(a2-3)]Gal(b1-4)Glc
# Outline: as §1
# [3] = target: Neu5Ac(a2-8)Neu5Ac(a2-3)Gal(b1-3)GalNAc(b1-4)[Neu5Ac(a2-8)Neu5Ac(a2-3)]Gal(b1-4)Glc
# Outline: as §1
# [4] = target: Neu5Ac(a2-8)Neu5Ac(a2-3)Gal(b1-4)Glc
# Outline: as §1
# [5] = target: Neu5Ac(a2-8)Neu5Ac(a2-3)Gal(b1-4)GlcNAc
# Outline: as §1
# [6] = target: Neu5Ac(a2-8)Neu5Ac(a2-3)[Gal(b1-3)GalNAc(b1-4)]Gal(b1-4)Glc
# Outline: as §1
# [7] = target: Neu5Ac(a2-8)Neu5Ac(a2-3)[GalNAc(b1-4)]Gal(b1-4)Glc
# Outline: as §1
# [8] = target: Neu5Ac(a2-8)Neu5Ac(a2-8)Neu5Ac
# Outline: as §1
# [9] = target: Neu5Ac(a2-8)Neu5Ac(a2-8)Neu5Ac(a2-3)Gal(b1-4)Glc
# Outline: as §1
# [10] = target: Neu5Ac(a2-8)Neu5Ac(a2-8)Neu5Ac(a2-3)[Gal(b1-3)GalNAc(b1-4)]Gal(b1-4)Glc
# Outline: as §1
# [11] = target: Neu5Ac(a2-8)Neu5Ac(a2-8)Neu5Ac(a2-3)[GalNAc(b1-4)]Gal(b1-4)Glc
# Outline: as §1
# [12] = target: Neu5Ac(a2-8)Neu5Ac(a2-8)Neu5Ac(a2-8)Neu5Ac(a2-3)[GalNAc(b1-4)]Gal(b1-4)Glc
# Outline: as §1
# [13] = target: Neu5Ac(a2-8)Neu5Gc(a2-3)Gal(b1-4)GlcNAc
# Outline: as §1
# [14] = target: Neu5Ac(b2-6)Gal(b1-4)GlcNAc
# Outline: as §1
# Neu5Ac(b2-6)GalNAc = target: Neu5Ac(b2-6)GalNAc
# Outline: as §1
# [15] = target: Neu5Ac9Ac(a2-3)Gal(b1-3)GlcNAc
# Outline: as §1
# [16] = target: Neu5Ac9Ac(a2-3)Gal(b1-4)GlcNAc
# Outline: as §1
# [17] = target: Neu5Ac9Ac(a2-6)Gal(b1-4)GlcNAc
# Outline: as §1
# [18] = target: Neu5Gc(a2-3)Gal(b1-3)GlcNAc
# Outline: as §1
# [19] = target: Neu5Gc(a2-3)Gal(b1-3)[Fuc(a1-4)]GlcNAc
# Outline: as §1
# Neu5Gc(a2-3)Gal(b1-4)Glc = target: Neu5Gc(a2-3)Gal(b1-4)Glc
# Outline: as §1
# [20] = target: Neu5Gc(a2-3)Gal(b1-4)GlcNAc
# Outline: as §1
# [21] = target: Neu5Gc(a2-3)Gal(b1-4)GlcNAc(b1-3)Gal(b1-4)GlcNAc(b1-2)Man(a1-3)[Neu5Gc(a2-3)Gal(b1-4)GlcNAc(b1-3)Gal(b1-4)GlcNAc(b1-2)Man(a1-6)]Man(b1-4)GlcNAc(b1-4)GlcNAc
# Outline: as §1
# [22] = target: Neu5Gc(a2-3)Gal(b1-4)[Fuc(a1-3)]GlcNAc
# Outline: as §1
# [23] = target: Neu5Gc(a2-6)Gal(b1-4)GlcNAc
# Outline: as §1
# Neu5Gc(a2-6)GalNAc = target: Neu5Gc(a2-6)GalNAc
# Outline: as §1
# [24] = target: Neu5Gc(a2-8)Neu5Ac(a2-3)Gal(b1-4)GlcNAc
# Outline: as §1
# [25] = target: Neu5Gc(a2-8)Neu5Gc(a2-3)Gal(b1-4)GlcNAc
# Outline: as §1
# [26] = target: Neu5Gc(a2-8)Neu5Gc(a2-3)Gal(b1-4)GlcNAc(b1-3)Gal(b1-4)GlcNAc
# Outline: as §1
# [27] = target: Neu5Gc(a2-8)Neu5Gc(a2-6)Gal(b1-4)GlcNAc
# Outline: as §1
# [28] = target: Neu5Gc(b2-6)Gal(b1-4)GlcNAc
# Outline: as §1
binder,measurement,setting,value
B1,glycan array binding signal (z-score),[1],-0.302
same,glycan array binding signal (z-score),Neu5Ac(a2-8)Neu5Ac,-0.107
same,glycan array binding signal (z-score),[2],-0.318
same,glycan array binding signal (z-score),[3],-0.329
same,glycan array binding signal (z-score),[4],-0.256
same,glycan array binding signal (z-score),[5],0.146
same,glycan array binding signal (z-score),[6],-0.306
same,glycan array binding signal (z-score),[7],-0.29
same,glycan array binding signal (z-score),[8],-0.273
same,glycan array binding signal (z-score),[9],-0.267
same,glycan array binding signal (z-score),[10],-0.297
same,glycan array binding signal (z-score),[11],-0.284
same,glycan array binding signal (z-score),[12],-0.279
same,glycan array binding signal (z-score),[13],-0.064
same,glycan array binding signal (z-score),[14],-0.321
same,glycan array binding signal (z-score),Neu5Ac(b2-6)GalNAc,-0.228
same,glycan array binding signal (z-score),[15],-0.194
same,glycan array binding signal (z-score),[16],-0.133
same,glycan array binding signal (z-score),[17],-0.174
same,glycan array binding signal (z-score),[18],-0.34
same,glycan array binding signal (z-score),[19],-0.325
same,glycan array binding signal (z-score),Neu5Gc(a2-3)Gal(b1-4)Glc,-0.33
same,glycan array binding signal (z-score),[20],-0.343
same,glycan array binding signal (z-score),[21],-0.31
same,glycan array binding signal (z-score),[22],-0.271
same,glycan array binding signal (z-score),[23],-0.34
same,glycan array binding signal (z-score),Neu5Gc(a2-6)GalNAc,-0.313
same,glycan array binding signal (z-score),[24],-0.329
same,glycan array binding signal (z-score),[25],-0.336
same,glycan array binding signal (z-score),[26],-0.301
same,glycan array binding signal (z-score),[27],-0.333
same,glycan array binding signal (z-score),[28],-0.338
